Some test systems named below: G361; IPC-298; IST-MEL1; LB2518-MEL; LOXIMVI; MEL-HO; MZ2-MEL; MeWo; RPMI7951; RVH-421.
What all share (assay): cell count relative to DMSO control; melanoma cells; higher = more viable cells
Settings in all cases: library dose: standard library concentration; 72 h

For twelve molecules, cell count results are on record in the supplement of paper PMC4604168 (melanoma cell lines).

This is one part of the list. Most values come without repeats; read them as rough.
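Note: cells treated in 1,536-well plates, then fixed and DAPI-stained, with nuclei counted from automated high-throughput microscope images.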

As for `CCCS(=O)(=O)Nc1ccc(F)c(C(=O)c2c[nH]c3ncc(Cl)cc23)c1F` + C#Cc1cccc(Nc2ncnc3cc(OCCOC)c(OCCOC)cc23)c1 [erlotinib] (first compound 0.4 µM, partner dose 4 µM), the cell count in the assay with G361 was determined as 44.8%; in the assay on IPC-298, 43.9%; in the assay with IST-MEL1, 84.5%; in the assay with LB2518-MEL, 72.6%; with LOXIMVI it was 93.3%; in the assay with MEL-HO, 77.8%. For the same molecule, the cell count in the assay on MZ2-MEL turned out to be 63.1%; in the assay with MeWo it was 83%; with RPMI7951 it was 72.7%; with RVH-421, 78.2%.
Turning to `CS(=O)(=O)c1ccc(C(=O)Nc2ccc(Cl)c(-c3ccccn3)c2)c(Cl)c1` [vismodegib] + COC(=O)c1sccc1S(=O)(=O)Nc1ccc(Nc2ccccc2)cc1OC [GSK0660] (first compound 5 µM, partner dose 5 µM), the cell count was found to be 97.4% in the assay with G361; 104% in the assay on IPC-298; 113% with IST-MEL1; 110% in the assay on LB2518-MEL; 138% in the assay on LOXIMVI; 99.7% with MEL-HO. The cell count in the assay with MZ2-MEL was 96.4%; in the assay on MeWo it was 118%; with RPMI7951 it was 90.1%; in the assay on RVH-421 it was 123%.
In the case of `CN(c1ncccc1CNc1nc(Nc2ccc3c(c2)CC(=O)N3)ncc1C(F)(F)F)S(C)(=O)=O` + Cn1c(Nc2ccc(C(F)(F)F)cc2)nc2cc(Oc3ccnc(-c4ncc(C(F)(F)F)[nH]4)c3)ccc21 [CHIR265] (first compound 0.4 µM, partner dose 0.4 µM), the cell count in the assay with G361 was determined as 22.2%; in the assay with IPC-298, 35.2%; with IST-MEL1 it was 71.5%; in the assay on LB2518-MEL, 24.1%; in the assay with LOXIMVI it was 64.6%; with MEL-HO, 60.1%. For the same molecule, the cell count with MZ2-MEL came to 45.7%; with MeWo it was 71.8%; in the assay on RPMI7951, 38.2%; in the assay on RVH-421, 58.4%.
Regarding `C=C(c1ccc(C(=O)O)cc1)c1cc2c(cc1C)C(C)(C)CCC2(C)C` [Bexarotene] + Nc1ccn([C@@H]2O[C@H](CO)[C@@H](O)C2(F)F)c(=O)n1 [gemcitabine] (first compound 10 µM, partner dose 0.002 µM), the cell count turned out to be 38.2% in the assay with G361; 42.4% with IPC-298; 25.4% with IST-MEL1; 63.1% in the assay on LB2518-MEL; 79.2% in the assay with LOXIMVI; 57.6% with MEL-HO. Further, the cell count with MZ2-MEL was 65.6%; in the assay with MeWo, 36.4%; in the assay with RPMI7951, 62.1%; in the assay with RVH-421 it was 56.7%.
`CN(c1ncccc1CNc1nc(Nc2ccc3c(c2)CC(=O)N3)ncc1C(F)(F)F)S(C)(=O)=O` + Cn1cc(/C=C2\C(=O)Nc3cccnc32)c2ccccc21 [GW441756] (first compound 0.4 µM, partner dose 2 µM): the cell count with G361 was determined as 70.9%; with IPC-298 it was 87.3%; in the assay with IST-MEL1, 82.1%; in the assay on LB2518-MEL it was 73%; with LOXIMVI, 86.3%; in the assay with MEL-HO it was 84.1%. For the same molecule, the cell count with MZ2-MEL is 66.1%; with MeWo it was 94.9%; with RPMI7951, 51.9%; with RVH-421 it was 87.2%.
Regarding `CN(c1ncccc1CNc1nc(Nc2ccc3c(c2)CC(=O)N3)ncc1C(F)(F)F)S(C)(=O)=O` + COc1cc2ncnc(Nc3ccc(Oc4ccccc4)cc3)c2cc1OC [SrcI1] (first compound 0.4 µM, partner dose 10 µM), the cell count in the assay with G361 was 69%; in the assay on IPC-298, 83.6%; with IST-MEL1 it was 80%; in the assay with LB2518-MEL it was 97.2%; in the assay with LOXIMVI it was 59%; with MEL-HO, 82.2%. Also, the cell count in the assay on MZ2-MEL was 50.6%; with MeWo it was 79.8%; in the assay on RPMI7951 it was 41%; in the assay on RVH-421 it was 101%.
Take `CCCS(=O)(=O)Nc1ccc(F)c(C(=O)c2c[nH]c3ncc(Cl)cc23)c1F` + Cn1cc(/C=C2\C(=O)Nc3cccnc32)c2ccccc21 [GW441756] (first compound 0.4 µM, partner dose 2 µM): the cell count in the assay on G361 came out at 66.5%; in the assay with IPC-298, 87.3%; in the assay on IST-MEL1, 97.7%; in the assay with LB2518-MEL, 104%; in the assay on LOXIMVI, 130%; in the assay with MEL-HO, 82.4%. In addition, the cell count turned out to be 81.8% in the assay on MZ2-MEL, 106% in the assay with MeWo, 118% in the assay with RPMI7951 and 91.7% in the assay on RVH-421.
In the case of `CN(c1ncccc1CNc1nc(Nc2ccc3c(c2)CC(=O)N3)ncc1C(F)(F)F)S(C)(=O)=O` + CCCS(=O)(=O)Nc1ccc(F)c(C(=O)c2c[nH]c3ncc(Cl)cc23)c1F [PLX4720] (first compound 0.4 µM, partner dose 0.4 µM), the cell count amounted to 58.6% in the assay on G361; 73.7% in the assay with IPC-298; 80.7% in the assay with IST-MEL1; 84.2% in the assay with LB2518-MEL; 76% in the assay with LOXIMVI; 79.2% in the assay on MEL-HO. The cell count in the assay on MZ2-MEL worked out at 76.6%; with MeWo, 105%; with RPMI7951, 62.2%; in the assay on RVH-421 it was 64.2%.
With `C=C(c1ccc(C(=O)O)cc1)c1cc2c(cc1C)C(C)(C)CCC2(C)C` [Bexarotene] + COc1cc2c(Oc3ccc4[nH]c(C)cc4c3F)ncnc2cc1OCCCN1CCCC1 [cediranib] (first compound 10 µM, partner dose 2 µM), the cell count turned out to be 79.9% with G361; 87.1% in the assay with IPC-298; 90.8% in the assay with IST-MEL1; 85.9% with LB2518-MEL; 65.1% in the assay on LOXIMVI; 102% with MEL-HO. Also, the cell count in the assay with MZ2-MEL was determined as 41.9%; in the assay with MeWo it was 90.1%; in the assay with RPMI7951, 55.1%; in the assay on RVH-421, 77.7%.
Regarding `CS(=O)(=O)c1ccc(C(=O)Nc2ccc(Cl)c(-c3ccccn3)c2)c(Cl)c1` [vismodegib] + Cn1c(=O)n(-c2ccc(C(C)(C)C#N)cc2)c2c3cc(-c4cnc5ccccc5c4)ccc3ncc21 [NVP-BEZ235] (first compound 5 µM, partner dose 0.02 µM), the cell count is 62.4% in the assay on G361; 68.1% with IPC-298; 72.9% in the assay on IST-MEL1; 94.7% in the assay on LB2518-MEL; 100% in the assay with LOXIMVI; 67.1% in the assay with MEL-HO. Also, the cell count was 93.7% in the assay on MZ2-MEL, 69.2% in the assay on MeWo, 85.1% in the assay with RPMI7951 and 113% in the assay with RVH-421.
Consider `C=C(c1ccc(C(=O)O)cc1)c1cc2c(cc1C)C(C)(C)CCC2(C)C` [Bexarotene] + C#Cc1cccc(Nc2ncnc3cc(OCCOC)c(OCCOC)cc23)c1 [erlotinib] (first compound 10 µM, partner dose 4 µM), for which the cell count amounted to 77.7% with G361; 70.7% in the assay on IPC-298; 91% with IST-MEL1; 78.4% with LB2518-MEL; 130% in the assay on LOXIMVI; 92.6% in the assay with MEL-HO. For the same molecule, the cell count with MZ2-MEL amounted to 87.7%; in the assay with MeWo, 71.6%; in the assay with RPMI7951, 56.4%; in the assay with RVH-421, 82.9%.
For `CN(c1ncccc1CNc1nc(Nc2ccc3c(c2)CC(=O)N3)ncc1C(F)(F)F)S(C)(=O)=O` + CN(C)S(=O)(=O)c1ccc2c(c1)/C(=C/c1cc3c([nH]1)CCCC3)C(=O)N2 [SU6656] (first compound 0.4 µM, partner dose 2 µM), the cell count in the assay with G361 turned out to be 67.7%; in the assay with IPC-298, 62.9%; in the assay on IST-MEL1, 71.3%; in the assay on LB2518-MEL, 59.8%; in the assay with LOXIMVI it was 95.6%; in the assay with MEL-HO, 81.3%. Moreover, the cell count in the assay with MZ2-MEL is 74.2%; with MeWo it was 75.4%; in the assay with RPMI7951, 48.2%; in the assay with RVH-421, 59.4%.
